Structures are written as SMILES. Hit rate of the full screen: of about 39,000 compounds, about 220 (0.56%) showed activity. Some of the results follow.
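Further: static incubation at 37 °C against the wild-type strain, values averaged over two biological replicates.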

This test concerns Escherichia coli K-12 BW25113. The experiment in a line: relative growth (OD600 normalised to plate interquartile mean) (fraction); higher = less growth inhibition, active = 0.2 or less. The settings on record: 50 µM; LB; incubation time: overnight (16-24 h).
Regarding `CNC(=O)c1c(N)cnn1C`, the relative growth is inactive: 0.93.
Under `Cc1ccc(S(=O)(=O)N(C)C[C@H]2OCCCC[C@H](C)Oc3ccc(NS(C)(=O)=O)cc3C(=O)N([C@@H](C)CO)C[C@@H]2C)cc1` stands inactive: 0.991.
For the compound `COc1cccc(OC)c1O`, the relative growth is inactive: 1.08.
For the compound `C[C@@H]1CCCCO[C@H](CN(C)Cc2ccc(Cl)c(Cl)c2)[C@H](C)CN([C@@H](C)CO)C(=O)c2cc(NS(=O)(=O)c3ccccc3)ccc2O1`, the relative growth is inactive: 1.02.
In the case of `COCC(=O)Nc1ccc2c(c1)C(=O)N(C)[C@@H]1CC[C@H](CC(=O)NCc3ccccc3Cl)O[C@@H]1CO2`, the relative growth is inactive: 1.02.
Under `C[C@@H]1CN([C@H](C)CO)C(=O)CCCn2cc(nn2)CO[C@@H]1CN(C)C(=O)Nc1ccc(C(C)(C)C)cc1` stands inactive: 1.02; under `COCCNC(=O)C[C@@H]1CC[C@H]2[C@H](COc3ccc(NC(=O)Nc4cccc(F)c4)cc3C(=O)N2C)O1`, inactive: 0.913; under `COc1ccccc1C#Cc1ccc2c(c1)O[C@@H](CN(C)Cc1ccncc1)[C@@H](C)CN([C@H](C)CO)S2(=O)=O`, inactive: 1.01.
On to `C[C@@H]1CN([C@H](C)CO)C(=O)c2cccc(NS(=O)(=O)c3ccccc3)c2O[C@H]1CN(C)S(=O)(=O)c1cccs1`, for which the relative growth was inactive: 1.
Under `CC(C)NC(=O)Nc1ccc2c(c1)C(=O)N([C@@H](C)CO)C[C@@H](C)[C@H](CN(C)C(=O)Nc1cccc3ccccc13)OCCCC[C@@H](C)O2` stands inactive: 1; under `COC(=O)C=CC(=O)OC`, inactive: 1.08; under `O=C(C[C@H]1C[C@H]2c3cc(NS(=O)(=O)c4ccc(F)cc4)ccc3O[C@H]2[C@@H](CO)O1)N1CCOCC1`, inactive: 1.
For `C[C@@H]1CN([C@@H](C)CO)C(=O)c2c(c3ccccc3n2C)-c2ccccc2CO[C@@H]1CN(C)C(=O)Nc1ccc(-c2ccccc2)cc1` the value was inactive: 1.05.
On to `C[C@H](CO)N1C[C@H](C)[C@@H](CN(C)Cc2ccc(C(F)(F)F)cc2)Oc2ccc(NC(=O)Cn3cnnn3)cc2CC1=O`, for which the relative growth was inactive: 0.916.
Under `CCOc1cc2ncc(C#N)c(Nc3ccc(OCc4ccccn4)c(Cl)c3)c2cc1NC(=O)/C=C/[C@H]1CCCN1C` stands inactive: 0.991; under `C=Cn1cnc2c1c(=O)n(C)c(=O)n2C`, inactive: 0.999; under `Cc1noc(C)c1NC(=O)Nc1ccc2c(c1)C(=O)N([C@H](C)CO)C[C@H](C)[C@@H](CN(C)C(=O)Nc1ccc(F)cc1)OCCCC[C@H](C)O2`, inactive: 0.987.
With `CC#CC1(O)CCC2C3CCC4=CC(=O)CCC4=C3C(c3ccc(N(C)C)cc3)CC21C` (stereo unspecified), the relative growth was inactive: 0.934.
For `CCS(=O)(=O)N1CC[C@]2(CC1)CN([C@@H](CO)c1[nH]c3cc(ccc3c12)OC)C(=O)c1ccc(cc1)F` the value was inactive: 1.02; for `O=C(C[C@@H]1CC[C@@H]2[C@H](COC[C@@H](O)CN2S(=O)(=O)c2ccc(Oc3ccccc3)cc2)O1)NCCN1CCCCC1`, inactive: 1.
Under `C[C@@H]1CN([C@H](C)CO)C(=O)c2cc(C#CC3(O)CCCC3)cnc2O[C@@H]1CN(C)S(C)(=O)=O` stands inactive: 1.02; under `COc1ccc(S(=O)(=O)Nc2ccc3c(c2)C(=O)N([C@H](C)CO)C[C@H](C)[C@H](CN(C)S(C)(=O)=O)OCCCC[C@H](C)O3)cc1`, inactive: 0.986.
For `C[C@H](CO)N1C[C@H](C)[C@@H](CN(C)C(=O)Cc2cccnc2)Oc2cc(C#Cc3ccccc3F)ccc2S1(=O)=O` the value was inactive: 1.02.
Regarding `C[C@H](CO)N1C[C@H](C)[C@H](CN(C)C(=O)Nc2cccc3ccccc23)Oc2ccc(NC(=O)Cn3cnnn3)cc2CC1=O`, the relative growth was inactive: 0.974.
Under `C[C@@H]1CCCCO[C@H](CN(C)S(=O)(=O)c2ccc(Cl)cc2)[C@H](C)CN([C@@H](C)CO)C(=O)c2cc(NC(=O)Nc3ccccc3)ccc2O1` stands inactive: 1.05; under `Cc1n[nH]c(=S)[nH]c1=O`, inactive: 1; under `C[C@@H]1CN([C@H](C)CO)C(=O)c2cccc(NS(=O)(=O)c3ccc(Cl)cc3)c2O[C@@H]1CN(C)S(C)(=O)=O`, inactive: 1.
For `COC(=O)C1=CO[C@@H](O[C@@H]2O[C@H](CO)[C@@H](O)[C@H](O)[C@H]2O)[C@H]2[C@@H]1[C@H](OC(C)=O)C[C@]2(C)OC(C)=O` the value was inactive: 1.04; for `C[C@@H]1CN([C@H](C)CO)C(=O)c2cc(NS(=O)(=O)c3cccs3)ccc2O[C@@H](C)CCCCO[C@H]1CN(C)Cc1ccc2c(c1)OCO2`, inactive: 1.01; for `C[C@@H]1CN([C@H](C)CO)C(=O)c2cccc(NC(=O)Nc3cccc4ccccc34)c2O[C@H]1CN(C)S(=O)(=O)c1ccccc1`, inactive: 0.987.
Consider `CC(C)NC(=O)N(C)C[C@@H]1Oc2ccc(NC(=O)CCN3CCOCC3)cc2C(=O)N([C@H](C)CO)C[C@@H]1C`, for which the relative growth was inactive: 0.987.
Under `C[C@H]1CN([C@@H](C)CO)C(=O)c2cc(-c3ccc(C(=O)N(C)C)cc3)cnc2O[C@@H]1CN(C)C(=O)c1cccnc1` stands inactive: 1.02.
For `COc1ccc(NC(=O)Nc2ccc3c(c2)C(=O)N([C@@H](C)CO)C[C@@H](C)[C@@H](CN(C)S(=O)(=O)c2cccs2)OCCCC[C@@H](C)O3)cc1` the value was inactive: 1.03; for `O=C(C[C@@H]1C=C[C@H](NC(=O)c2cccnc2)[C@@H](CO)O1)NCc1ccncn1`, inactive: 1.01; for `CNC[C@H]1OCCCC[C@H](C)Oc2ccc(NC(=O)Nc3cccc4ccccc34)cc2C(=O)N([C@@H](C)CO)C[C@@H]1C`, inactive: 0.992.
For `COc1ccccc1-c1ccc2c(c1)O[C@H](CN(C)C(=O)c1ccncc1)[C@H](C)CN([C@@H](C)CO)S2(=O)=O` the value was inactive: 0.981; for `C[C@@H]1CN([C@H](C)CO)C(=O)c2cc(C#Cc3ccccc3)cnc2O[C@H]1CN(C)C(=O)CCN1CCCCC1`, inactive: 0.971.
With `C[C@@H]1CCCCO[C@H](CN(C)Cc2ccc(C(F)(F)F)cc2)[C@H](C)CN([C@H](C)CO)C(=O)c2cc(NC(=O)CCC(F)(F)F)ccc2O1`, the relative growth is inactive: 0.99.
For `Cc1ccc(S(=O)(=O)N(C)C[C@H]2OCCCC[C@@H](C)Oc3ccc(NC(=O)Nc4cccc5ccccc45)cc3C(=O)N([C@H](C)CO)C[C@@H]2C)cc1` the value was inactive: 1.01; for `C/C=C/c1ccc2c(c1)O[C@H](CN(C)S(=O)(=O)c1ccccc1OC)[C@@H](C)CN([C@H](C)CO)S2(=O)=O`, inactive: 1.02.
Turning to `C[C@@H]1CCCCO[C@H](CN(C)S(C)(=O)=O)[C@H](C)CN([C@@H](C)CO)C(=O)c2cc(NS(=O)(=O)c3ccc(F)cc3)ccc2O1`, the relative growth was inactive: 1.
For `COc1ccc(C#Cc2ccc3c(c2)O[C@H](CN(C)S(=O)(=O)c2ccccc2F)[C@@H](C)CN([C@H](C)CO)S3(=O)=O)cc1` the value was inactive: 1.03; for `C[C@H](CO)N1C[C@H](C)[C@H](CN(C)S(=O)(=O)c2ccccc2)OCCCC[C@H](C)Oc2ccc(NC(=O)C3CCCCC3)cc2C1=O`, inactive: 0.999.
As for `O=C1C2C=CC([C@H]3[C@@H]2C=CC(=O)[C@]32CO2)[C@@]12CO2` (stereo partly specified), the relative growth was inactive: 1.02.
Under `C1CN(C2CCSCC2)CCN1` stands inactive: 0.996.
Under `COc1cccc(S(=O)(=O)N[C@H]2C=C[C@@H](CC(=O)NC3CCC3)O[C@H]2CO)c1` stands inactive: 1.01; under `O=C(C[C@@H]1CC[C@H](NC(=O)Nc2ccc3c(c2)OCO3)[C@@H](CO)O1)NCCCN1CCOCC1`, inactive: 1.01; under `C[C@@H]1CCCCO[C@@H](CN(C)C(=O)c2ccccc2)[C@H](C)CN([C@H](C)CO)C(=O)c2cc(NC(=O)Nc3ccccc3)ccc2O1`, inactive: 0.988.
Turning to `C[C@H]1CN([C@@H](C)CO)C(=O)CCCn2cc(nn2)CO[C@H]1CN(C)C(=O)Nc1ccnc(N2CCOCC2)c1`, the relative growth was inactive: 0.985.
For `Clc1ccc(CSC(Cn2ccnc2)c2ccc(Cl)cc2Cl)cc1.O=[N+]([O-])O` (stereo unspecified) the value was inactive: 0.985.
For `COCCOC(=O)N1C(=O)[C@@]2(c3cc(C#CC4=CCCCC4)ccc31)[C@H](c1ccc(OCCO)cc1)N1[C@H](c3ccccc3)[C@H](c3ccccc3)OC(=O)[C@H]1[C@@H]2C(=O)N1CCCCCCC1` the value was inactive: 1.05; for `CCOC(=O)N1CCC(O)CC1`, inactive: 0.992; for `CCS(=O)(=O)Nc1ccc2c(c1)C(=O)N(C)C[C@@H](OC)[C@@H](C)CN(CCC(F)(F)F)[C@@H](C)CO2`, inactive: 1.02.
For the compound `Cc1ccc(S(=O)(=O)N(C)C[C@@H]2OCCCC[C@@H](C)Oc3ccc(NC(=O)c4ccccc4)cc3C(=O)N([C@@H](C)CO)C[C@H]2C)cc1`, the relative growth is inactive: 0.991.
For `Cc1noc(C)c1S(=O)(=O)Nc1ccc2c(c1)C(=O)N([C@H](C)CO)C[C@@H](C)[C@@H](CN(C)Cc1ccc(C(=O)O)cc1)O2` the value was inactive: 1.02.
On to `COc1ccc(C#Cc2cnc3c(c2)C(=O)N([C@H](C)CO)C[C@@H](C)[C@@H](CN(C)C(=O)CC2CC2)O3)cc1`, for which the relative growth is inactive: 0.997.
Turning to `C[C@@H]1CN([C@H](C)CO)C(=O)c2cc(C#Cc3cccnc3)cnc2O[C@@H]1CN(C)S(C)(=O)=O`, the relative growth was inactive: 0.997.
For `COc1ccc(NC(=O)N(C)C[C@H]2Oc3c(NC(=O)C4CCOCC4)cccc3C(=O)N([C@@H](C)CO)C[C@H]2C)cc1` the value was inactive: 0.991; for `C[C@H]1CN([C@@H](C)CO)C(=O)Cc2cc(NC(=O)c3ccncc3)ccc2O[C@H]1CN(C)S(=O)(=O)c1ccc(Cl)cc1`, inactive: 0.999.
For `C=CCC[C@H](Cc1ccc(F)cc1)C(=O)OC[C@@H](NC(=O)[C@@H](CC=C)CC(=O)N(CCO)Cc1ccccc1)c1ccccc1` the value was inactive: 1.1.
Under `COc1ccc(S(=O)(=O)N(C)C[C@H]2OCCCC[C@@H](C)Oc3ccc(NC(=O)CCC(F)(F)F)cc3C(=O)N([C@@H](C)CO)C[C@@H]2C)cc1` stands inactive: 1.01.

The values are drawn from the supplement of paper PMC9446081.
